{
  "source": "PubChem BioAssay AID463173",
  "about": "(ICCB-Longwood Screening Facility, Harvard Medical School, 2010)",
  "note": "Screen size: about 52,000 compounds; about 4,300 (8.3%) were called active. Rule as the data show it: active = survival mostly below about 52% (no sharp cut-off); inactive = mostly above about 56%. The list shows a part of the results.",
  "data": [
    {"test_system": "DeltatarO mutant", "experiment": "S. aureus survival, RN4220 and DeltatarO strains – OD600, teichoic acid synthesis inhibitors, primary screen (AID 463173)", "settings": "S. aureus RN4220 wild type/DeltatarO growth, OD600, 18 h, active compounds read low, screened at 18.75 µg/mL (by protocol)", "values": [
      {"smiles": "CCN(CC)S(=O)(=O)c1ccc(-c2nnc(SCC(=O)O)n2CC)cc1", "survival": "inactive: 77%"},
      {"smiles": "O=C(COc1ccc(Cl)cc1)Nc1ccc2nc(SCC(=O)N3CCCC3)sc2c1", "survival": "inactive: 67%"},
      {"smiles": "COc1ccc(OC)c(NC(=O)CSc2ccc(-c3sc(C)nc3C)nn2)c1", "survival": "inactive: 83%"},
      {"smiles": "Cc1nn(C(=O)c2cccc(Cl)c2)c(C)c1S(=O)(=O)N1CCOCC1", "survival": "inactive: 82%"},
      {"smiles": "CCn1c(=O)cc(SCC(=O)NCc2ccc(OC)cc2OC)c2ccccc21", "survival": "inactive: 66%"},
      {"smiles": "CCc1ccc(-n2nc(CO)c(C(=O)NCCCc3ccccc3)n2)cc1", "survival": "inactive: 95%"},
      {"smiles": "Cc1ccc(C)c(S(=O)(=O)c2nnn3c2nc(NC2CCCCC2)c2sccc23)c1", "survival": "inactive: 40%"},
      {"smiles": "Cc1ccccc1Cn1c2ccccc2c2cnn(CC(=O)NCc3ccccn3)c(=O)c21", "survival": "inactive: 66%"},
      {"smiles": "CCSc1ccccc1C(=O)Nc1ccc(-c2nc3ccccc3s2)c(O)c1", "survival": "inactive: 83%"},
      {"smiles": "Cc1ccc(C)c(N2CCN(C(=O)NCc3noc4ccc(C)cc34)CC2)c1", "survival": "inactive: 64%"},
      {"smiles": "Cc1ccccc1OCC(=O)Nc1cccc(C(=O)OCc2cc(=O)n3c(C)csc3n2)c1", "survival": "inactive: 88%"},
      {"smiles": "COCc1c(CSSCc2cnc(C)c(O)c2COC)cnc(C)c1O", "survival": "inactive: 64%"},
      {"smiles": "CCOc1ccc(-c2c(C)nn3c(C)c(C(=O)NCCc4ccc(Cl)cc4)cnc23)cc1OCC", "survival": "inactive: 72%"},
      {"smiles": "COC(=O)c1ccccc1NC(=O)c1cc2cc(C)ccc2n1C", "survival": "inactive: 99%"},
      {"smiles": "O=C(CC1COc2ccccc2O1)NCCc1ccccc1", "note": "(stereo unspecified)", "survival": "inactive: 87%"},
      {"smiles": "O=C(Cn1c(=O)n(-c2ccc(Cl)cc2)c(=O)c2sc3ccccc3c21)NC1CCCC1", "survival": "inactive: 90%"},
      {"smiles": "Cc1ccc(S(=O)(=O)Cc2ccc(C(=O)N3CCN(c4cccc(Cl)c4)CC3)o2)cc1", "survival": "inactive: 75%"},
      {"smiles": "CCC1=Nc2cc(C(=O)NCCN(CC)CC)ccc2Sc2ccccc21", "survival": "inactive: 120%"},
      {"smiles": "c1ccc(CN2CCN(c3ncnc4c3cnn4-c3ccccc3)CC2)cc1", "survival": "inactive: 69%"},
      {"smiles": "CCc1nc2cccnc2n1-c1ccc(CC(=O)Nc2cccc(C)c2C)cc1", "survival": "inactive: 81%"},
      {"smiles": "CCc1cccc(NC(=O)C2CCC(CNS(=O)(=O)c3ccc(Br)s3)CC2)c1", "note": "(stereo unspecified)", "survival": "inactive: 79%"},
      {"smiles": "Cc1c(-n2c(O)c(C3=c4ccccc4=NC3=O)sc2=O)c(=O)n(-c2ccccc2)n1C", "survival": "inactive: 75%"},
      {"smiles": "Cc1ccc(NC(=O)c2cc(S(=O)(=O)N3CCc4ccccc43)cn2C)c(Cl)c1", "survival": "inactive: 106%"},
      {"smiles": "CCN(CC)CCCn1c(N)c(-c2nc3ccccc3[nH]2)c2nc(C#N)c(C#N)nc21", "survival": "inactive: 85%"},
      {"smiles": "Cc1cccc(-n2ncc3c(Nc4ccc(C)c(Cl)c4)ncnc32)c1", "survival": "inactive: 124%"},
      {"smiles": "COc1ccc(NC(=O)c2c(-c3ccccc3)c(-c3ccccc3)nn(C)c2=O)cc1OC", "survival": "inactive: 53%"},
      {"smiles": "Cc1ccccc1CNC(=O)CN1C(=O)C2CCCCN2c2ccc(C(=O)N3CCCC3)cc21", "note": "(stereo unspecified)", "survival": "inactive: 76%"},
      {"smiles": "CCc1nn(CC(=O)N2CCCCC2)c(=O)c2cc3sc(C)cc3n12", "survival": "inactive: 101%"},
      {"smiles": "Cc1ccc(C)c(Cn2c(=O)n(C(C)C)c(=O)c3oc4ccccc4c32)c1", "survival": "active: 51%"},
      {"smiles": "COc1cccc(-n2c(CNC(=O)OC(C)(C)C)n[nH]c2=S)c1", "survival": "inactive: 82%"},
      {"smiles": "O=C(Nc1ccc2c(c1)N(C1CCCC1)C(=O)c1ccccc1S2)c1ccccc1F", "survival": "inactive: 77%"},
      {"smiles": "CCOC(=O)c1cccc(NC(=O)C2Cc3ccccc3N2C(=O)c2ccccc2)c1", "note": "(stereo unspecified)", "survival": "inactive: 81%"},
      {"smiles": "CCOc1ccc(C(=O)NC2CC(=O)N(c3ccc(C)cc3)C2)cc1OCC", "note": "(stereo unspecified)", "survival": "inactive: 101%"},
      {"smiles": "Cc1ccc(Nc2nc3ccccc3c3nncn23)c(Cl)c1", "survival": "inactive: 125%"},
      {"smiles": "Cc1ccc(-c2nc(NC(=O)CSc3nc(C)nc4sc5c(c34)CCCC5)ns2)cc1", "survival": "inactive: 53%"},
      {"smiles": "CC1CCN(S(=O)(=O)c2ccc3c(ccn3CCC(=O)NCc3ccccc3F)c2)CC1", "survival": "active: -5%"},
      {"smiles": "O=C1CCCC/C1=N\\Nc1ccc(CN2CCCCC2)cc1", "survival": "inactive: 97%"},
      {"smiles": "CCOc1ccc(NC(=O)c2cc(OC)nc3ccccc23)cc1", "survival": "inactive: 96%"},
      {"smiles": "CCOc1ccc(NC(=O)c2ccc3c(c2)CCN3S(=O)(=O)CC)cc1", "survival": "inactive: 48%"},
      {"smiles": "O=C(Nc1cccc(C(=O)N2CCOCC2)c1)NC1CCCCC1", "survival": "inactive: 84%"},
      {"smiles": "O=C(CC1C(=O)N(c2ccccc2)C(=O)N1Cc1ccc(F)cc1)Nc1cccc(F)c1", "note": "(stereo unspecified)", "survival": "inactive: 68%"},
      {"smiles": "CCOC(=O)Nc1ccc(C(=O)OC)cc1", "survival": "inactive: 75%"},
      {"smiles": "COc1ccc2nc(C)cc(SCC(=O)O)c2c1", "survival": "inactive: 68%"},
      {"smiles": "CCn1c(SCC(=O)N(C)C)nnc1-c1ccccc1", "survival": "inactive: 91%"},
      {"smiles": "Cc1ccc(C(=O)c2oc3ccccc3c2NC(=O)COc2ccc(C(C)C)cc2)cc1", "survival": "inactive: 73%"},
      {"smiles": "Cc1cccc(OCc2nnc(SCC(=O)N3c4ccccc4CCc4ccccc43)o2)c1", "survival": "inactive: 99%"},
      {"smiles": "O=C(NCC1CCCO1)c1c[nH]c2ccccc2c1=O", "note": "(stereo unspecified)", "survival": "inactive: 84%"},
      {"smiles": "O=C(Nc1ccc(S(=O)(=O)Nc2ncccn2)cc1)c1cc(=O)c2ccccc2o1", "survival": "inactive: 58%"},
      {"smiles": "CC(C)c1nn2c(=O)cc(COC(=O)c3ccc(NC(=O)C4CCCCC4)cc3)nc2s1", "survival": "inactive: 71%"},
      {"smiles": "Cc1ccc(CSc2ncc(Cl)c(C(=O)NCc3ccccc3)n2)cc1", "survival": "inactive: 79%"},
      {"smiles": "Cc1ccc(S(=O)(=O)N2CCCc3cc(NS(=O)(=O)c4cc(C)ccc4C)ccc32)cc1", "survival": "inactive: 91%"},
      {"smiles": "COc1cc2cc(C(=O)Nc3ccccc3)c(N)nc2cc1OC", "survival": "inactive: 92%"},
      {"smiles": "COc1ccc(-c2cc(-c3ccccc3)nc3c2COc2ccc(F)cc2-3)cc1", "survival": "inactive: 73%"},
      {"smiles": "CCN(CC)C(=O)Cn1c(=O)cc(C)c2c(C)nn(-c3ccc(C)cc3)c21", "survival": "inactive: 67%"},
      {"smiles": "CCc1ccc(OCC2c3cc(OC)c(OC)cc3CCN2C(=O)c2ccc(S(=O)(=O)N3CCCC3)cc2)cc1", "note": "(stereo unspecified)", "survival": "inactive: 87%"},
      {"smiles": "CCn1cc(C(=O)NCCCOC(C)C)c(=O)c2cc(S(=O)(=O)N3CCOCC3)ccc21", "survival": "inactive: 129%"},
      {"smiles": "CCOC(=O)c1cnc2c(ccc3ccccc32)c1Nc1ccc(N(C)C)cc1", "survival": "active: 0%"},
      {"smiles": "CC1CCc2c(nc3ncnn3c2NCCc2ccccc2F)C1", "note": "(stereo unspecified)", "survival": "inactive: 87%"},
      {"smiles": "CC(C)N(Cc1ccccc1)C(=O)c1nc(-c2ccc(Cl)cc2)n2c1CCCCC2", "survival": "inactive: 115%"},
      {"smiles": "O=S(=O)(c1ccc(Cl)cc1)c1nnn2c1nc(NC1CCCC1)c1sccc12", "survival": "inactive: 61%"},
      {"smiles": "CCC1Sc2ccccc2N(CC(=O)NCc2ccc(C)cc2)C1=O", "note": "(stereo unspecified)", "survival": "inactive: 105%"},
      {"smiles": "N#Cc1ccc(C=Nc2ccc(C(N)=O)cc2)cc1", "survival": "inactive: 75%"},
      {"smiles": "Cc1cccn2c(=O)c3cc(C(=O)NCC(C)C)sc3nc12", "survival": "active: 63%"},
      {"smiles": "COc1ccc(N2CCN(C(CNS(=O)(=O)c3ccc(OC)c(C)c3)c3ccco3)CC2)cc1", "note": "(stereo unspecified)", "survival": "inactive: 79%"},
      {"smiles": "O=C(CSc1nc2c([nH]c3ccccc32)c(=O)n1-c1ccccc1)Nc1ccc2c(c1)OCO2", "survival": "inactive: 119%"},
      {"smiles": "Nc1c(C(=O)Nc2ccccc2Br)sc2nc(-c3cccs3)ccc12", "survival": "inactive: 50%"},
      {"smiles": "COc1ccc(-c2nc(Cn3c(=O)cc(C)c4c(C)nn(-c5ccccc5)c43)c(C)o2)cc1OC", "survival": "inactive: 128%"},
      {"smiles": "Cc1ccc(C(=O)Cn2c(-c3ccccc3)noc2=O)cc1", "survival": "inactive: 72%"},
      {"smiles": "Cc1cc(NC(=O)N2CCC(CN3CCCCCC3)CC2)ccc1Br", "survival": "inactive: 78%"},
      {"smiles": "COc1cccc(NC(=O)c2c(C)nn(-c3cccc(C)c3)c2-n2cccc2)c1", "survival": "active: 8%"},
      {"smiles": "COc1cccc(CN2C(=O)CN(C3CCCCC3)C(=O)C2c2ccc(OC(C)C)c(OC)c2)c1", "note": "(stereo unspecified)", "survival": "inactive: 97%"},
      {"smiles": "N#Cc1ccc(-c2cccnc2)n(CC(=O)N2CC(=O)Nc3ccccc32)c1=O", "survival": "inactive: 86%"},
      {"smiles": "COC(=O)c1ccc2c(=O)n(CCCCCC(=O)NCCc3ccccc3)c(=O)[nH]c2c1", "survival": "inactive: 79%"},
      {"smiles": "O=C(Nc1ccccc1)c1cccc(N2CCCC2=O)c1", "survival": "inactive: 86%"},
      {"smiles": "CCOc1ccc(-c2cc(NC(=O)c3ccccc3)c(C(=O)OC)s2)cc1", "survival": "inactive: 94%"},
      {"smiles": "Cc1cc(C)c(NC(=O)Cn2c(=O)oc3cc(S(=O)(=O)N4CCCCCC4)ccc32)c(C)c1", "survival": "inactive: 83%"},
      {"smiles": "O=C(CCCOc1ccccc1)NC1CCSC1=O", "note": "(stereo unspecified)", "survival": "inactive: 90%"},
      {"smiles": "Cc1ccc(-n2nc(C)c3c(C)c(CCC(=O)NC(C)c4ccccc4)c(C)nc32)cc1", "note": "(stereo unspecified)", "survival": "inactive: 53%"},
      {"smiles": "Cc1ccc(Cc2nc3ccccc3nc2SCC(=O)N2CCC(C)CC2)cc1", "survival": "inactive: 80%"},
      {"smiles": "CC(C)CNS(=O)(=O)c1ccc(S(=O)(=O)N2CCN(c3ccccc3)CC2)cc1", "survival": "inactive: 92%"},
      {"smiles": "Fc1ccc(CN2CCc3nc(N4CCN(c5ccccc5F)CC4)ncc3C2)c(F)c1", "survival": "inactive: 77%"},
      {"smiles": "Cc1ccc(CNC(=O)c2ccc(CSc3nc4ccncc4n3Cc3ccc(C)cc3)cc2)cc1", "survival": "inactive: 119%"},
      {"smiles": "COc1cccc(C(=O)Nc2ccc3nc(SCC(=O)N(C)c4ccccc4)sc3c2)c1", "survival": "inactive: 72%"},
      {"smiles": "CCOc1ccc(NC(=O)c2c(C)oc3nc(C)nc(N4CCCC4)c23)cc1", "survival": "inactive: 60%"},
      {"smiles": "O=C(NCCc1ccc(Cl)cc1)C1CCN(Cc2cc3ccccc3n2Cc2ccccc2)CC1", "survival": "inactive: 73%"},
      {"smiles": "COc1ccc(CCNC(=O)CCc2cn(Cc3ccccc3Cl)c3ccccc23)c(OC)c1", "survival": "inactive: 59%"},
      {"smiles": "COc1ccc(NC(=O)c2cc3c(-c4ccccc4F)nn(C)c3s2)c(OC)c1", "survival": "active: 44%"},
      {"smiles": "Cc1ccccc1NC(=O)Cn1cc(S(=O)(=O)c2ccccc2)c(=O)c2ccccc21", "survival": "inactive: 81%"},
      {"smiles": "CCC(C)NC(=O)c1cc(Sc2cccc(Cl)c2)nc2ccccc12", "note": "(stereo unspecified)", "survival": "inactive: 99%"},
      {"smiles": "CCCn1c2ccccc2c2cnn(CC(=O)NCCCN3CCCCC3CC)c(=O)c21", "note": "(stereo unspecified)", "survival": "inactive: 77%"},
      {"smiles": "CCN1CCN(Cc2c(O)ccc3oc(C)c(C(=O)Nc4cccc(Cl)c4C)c23)CC1", "survival": "inactive: 94%"}
    ]}
  ]
}
